The supplement of paper PMC11417369
± gives the standard deviation of the averaged measurements. The list shows a part of the results.

system: PfAP2-EXP AP2 domain (GST-tagged); assay: gcPBM binding intensity (ln(normalized median fluorescence intensity)); higher = stronger DNA binding
Method in brief: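 After 1 h on an Agilent 4 × 180k array of primer-extended double-stranded 36-bp intergenic genomic probes and negative controls, bound GST-tagged P. falciparum DNA-binding domains were detected with Alexa488 anti-GST antibody and scanned at 488 nm. The domains had been expressed in E. coli, and binding took place in 1× PBS with 1% milk, 0.2 mg/ml BSA, 0.5% salmon testes DNA and 0.03% Triton X-100. Binding intensity is the highest Masliner-normalised natural-log median intensity across replicate spots of either probe orientation.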

Row | Sequence | gcPBM binding intensity (ln)
1 | AGAATCACCAAATATGTACACACCTTAACATGTTTA [CACACA_site2068] | 9.01 ± 0.46
2 | TATATTATAAATTAATGTACGTAATTTTTTTTTTTT [XGTACX_site2500] | 8.27 ± 0.59
3 | TTTTTTTTTTACTTCACACATATACATTTATATTTA [CACACA_site4385] | 8.7 ± 0.44
4 | TAAACATACAGATACACACACACACCCACAGAGACA [CACACA_site4429] | 8.74 ± 0.53
5 | CTTGGGCGTCATAATGAACACACAATTATATTATGA [CACACA_site9297] | 8.27 ± 0.45
6 | TTATTACCATATTTTGTACACACATCTTTATCTCAA [CACACA_site9054] | 8.92 ± 0.4
7 | ATTATATAATCTATATGTACATATATATATATATAT [XGTACX_site4970] | 10.1 ± 0.3
8 | TATATATAAGCGCATGCACACGCAAAGGTATATAAA [CACACA_site8107] | 9.4 ± 0.11
9 | AAAATAATAAATAACGCATGCGTGTGCATTTTATTC [TGCATGCA_site898] | 9.305 ± 0.064
10 | ATATATACAAATCCTTTTTTCCAAGATGGAAAAAGA [CACACA_negctrl_site382] | 8.18 ± 0.51
11 | ATAATAATATTATTTTGTACATATGTGCTTATTTAT [XGTACX_site5540] | 8.99 ± 0.45
12 | AGTAATAAGTAATTTACACACATATTATAGCATCAC [CACACA_site6971] | 8.56 ± 0.5
13 | GTATAATTTAAAAAGTGTACATAAAGTTTTTATTAA [XGTACX_site1090] | 8.38 ± 0.2
14 | TTTTGTCAACATTTTTATATTAGGTCTTGAACGATT [GTGCAC_negctrl_site72] | 8.35 ± 0.45
15 | AAAAAATTCAAAATCACACATAAAAAAGGACACATA [CACACA_site5972] | 8.88 ± 0.38
16 | CCTACAATTCGTAATACACACACATATATATATATA [CACACA_site9251] | 10.2 ± 0.16
17 | ACATTATATAAAATATGTACACATAAATAAATAAAT [XGTACX_site5031] | 8.73 ± 0.41
18 | TAATTTTGTAAAAATTGTACATATTTATCTTTTTAT [XGTACX_site4305] | 8.22 ± 0.37
19 | TCATATTATAAAAAATGTACAAGGAAAAAATATATA [XGTACX_site337] | 9.06 ± 0.58
20 | AAAAAAAAAAAAAACACACACATATAATATATTTAA [CACACA_site1337] | 8.35 ± 0.38
21 | TATATAATAAGATATGCATGCACATGTAAAATGAAT [TGCATGCA_site499] | 10.1 ± 0.13
22 | TTAAAATAGATAAATAGTACTCTTTCCATTATGTAA [XGTACX_site6299] | 8.16 ± 0.29
23 | ATAATGTTTTATAATACACACATTAGATATATAAAT [CACACA_site7834] | 8.36 ± 0.37

Row | Sequence | gcPBM binding intensity (ln)
24 | TCATATAACACTTGATGTACAAGAATCCAAGTTGCA [XGTACX_site8758] | 8.48 ± 0.33
25 | ATATGTATAATATATATATATATATATATATATATA [CACACA_negctrl_site623] | 9.94 ± 0.54
26 | TAAATACTTTTATGTACACACATATAGATATATATT [CACACA_site5416] | 8.54 ± 0.26
27 | TTGAACCTGATAAATACACACAATATATATTTTTTT [CACACA_site2173] | 8.2 ± 0.47
28 | GTGATAAATATTATATGTACATATAATATTTATGTC [XGTACX_site8023] | 8.62 ± 0.28
29 | CCATTCTTACTTTATTGTACTTGAAAATTTTTTTTA [XGTACX_site6160] | 8.85 ± 0.4
30 | TCAAAAACGAGACATGCATGCAATTCATTTTGATTC [TGCATGCA_site212] | 9.94 ± 0.38
31 | TTTTTGTGCATTGATTGTACTTTCTAGGATTATTAA [XGTACX_site7070] | 8.92 ± 0.042
32 | TTTATCCAATAATCTGGTACACAATAATCATTCATG [XGTACX_site6192] | 8.38 ± 0.36
33 | TTTCTATTTATTTCAAGTACTAAAAATATATATAAC [XGTACX_site8203] | 8.46 ± 0.38
34 | ATTCATATATACTTCACACACATTTTATCATTCAAA [CACACA_site2468] | 8.93 ± 0.33
35 | TTTTTTTACTTAATAGTTCAACATATATCTCAATGT [CACACA_negctrl_site620] | 8.49 ± 0.38
36 | GAAAACGTCTTTAATAGTACACAGTTAAAAAATACA [XGTACX_site8976] | 8.48 ± 0.38
37 | GAAATTATGTAAAAAAGTACTAACATACATATATAT [XGTACX_site1794] | 8.61 ± 0.32
38 | TATATATATATATAAAGTACATATAATATATATTTG [XGTACX_site5412] | 9.97 ± 0.45
39 | TTTTTTTTTTTGATGGTGCAATATATTAAATAGAAA | 8.86 ± 0.28
40 | TTTTTTCATTATATATAGTATGCAAGTCAAATTAAT [GTGCAC_negctrl_site207] | 8.32 ± 0.44
41 | CTATAAAAATATAATTGTACAAATTTTTATATCTTA [XGTACX_site7722] | 8.18 ± 0.35
42 | ACAAAATTTACAAAATGTACAAAATTTACAAAATAT [XGTACX_site3542] | 8.47 ± 0.35
43 | AAAAAAAAAAAAAACATACACACATTGAACTTTTAT [CACACA_site3251] | 8.4 ± 0.38
44 | TATACCTATAGACACACACACATATAGATTTATATA [CACACA_site7124] | 8.45 ± 0.45
45 | CGCATACACAGACACACACACACATATAAATATGTA [CACACA_site6444] | 8.54 ± 0.28
